Measurements taken from PubChem BioAssay AID1468 (National Center for Advancing Translational Sciences (NCATS), 2008).
Hit rate of the full screen: of about 280,000 compounds, about 1,100 (0.39%) were called active. The inconclusive results got no clear call from the source; some entries with a clear call stand among them for comparison. Calls come from the whole dose curve; as a rule, active = well fitted inhibition curve with a large enough effect; inconclusive = small, poorly fitted or top-dose-only effect, or effect the other way; inactive = flat fitted curve, though single readings scatter. No potency is given beside an inconclusive call; the fits are too rough.

Biological target: Microtubule-associated protein tau (Homo sapiens) (UniProt P10636)
UniProt P10636, sequence (P10636 whole entry, looked up): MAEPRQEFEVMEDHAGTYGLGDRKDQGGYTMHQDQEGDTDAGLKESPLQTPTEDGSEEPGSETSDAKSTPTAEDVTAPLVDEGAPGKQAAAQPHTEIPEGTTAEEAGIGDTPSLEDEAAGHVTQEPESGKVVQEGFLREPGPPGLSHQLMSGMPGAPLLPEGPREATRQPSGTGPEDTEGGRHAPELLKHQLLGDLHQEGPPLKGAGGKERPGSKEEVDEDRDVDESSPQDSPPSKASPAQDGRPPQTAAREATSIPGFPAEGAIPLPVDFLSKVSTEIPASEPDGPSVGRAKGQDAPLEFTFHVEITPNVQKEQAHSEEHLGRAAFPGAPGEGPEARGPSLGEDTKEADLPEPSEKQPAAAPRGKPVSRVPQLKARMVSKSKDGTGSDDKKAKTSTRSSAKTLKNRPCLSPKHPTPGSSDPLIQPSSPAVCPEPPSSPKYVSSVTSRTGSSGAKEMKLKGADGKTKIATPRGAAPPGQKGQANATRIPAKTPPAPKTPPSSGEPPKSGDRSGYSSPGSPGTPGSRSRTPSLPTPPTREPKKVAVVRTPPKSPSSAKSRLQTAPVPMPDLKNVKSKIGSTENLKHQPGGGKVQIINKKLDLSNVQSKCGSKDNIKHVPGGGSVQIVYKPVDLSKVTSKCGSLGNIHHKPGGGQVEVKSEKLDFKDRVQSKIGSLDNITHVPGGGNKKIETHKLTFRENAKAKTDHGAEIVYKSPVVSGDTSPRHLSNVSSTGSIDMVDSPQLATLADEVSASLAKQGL
Assay: qHTS for Inhibitors of Tau Fibril Formation, Fluorescence Polarization; note: nearly all actives have a fitted effect of over 55% in size
Conditions: K18 P301L tau heparin fibrillization, Alexa594 FP, 6 h; series mostly up to 57.7 µM; activity, negative = inhibition: at the top concentration
Method in brief: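 K18 P301L tau (15 uM unlabeled/0.24 uM Alexa 594-labeled, final) + compound + heparin 20 uM final; 100 mM NaOAc pH 7; 6 hr 37 C; ThT 30 uM final added, 1 hr RT; FP ex 555/em 632 nm.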
% is set by controls: 0 for no effect and ±100 for the full control effect; potency is the fitted concentration of half-maximal effect; tags give direction and shape of the fitted curve.

SMILES	activity, negative = inhibition	Potency
Cn1c[n+](C)cc1-c1ccc(/C(N)=N/O)cc1	inactive: -4.23%	–
O=C(COC(=O)c1ccc2c(c1)C(=O)N(CCc1ccccc1)C2=O)Nc1ccc(OC(F)F)cc1	–	inconclusive [inhibitor, partial curve]
Nc1nnc(SCC(=O)Nc2ccccc2)s1	–	inconclusive [inhibitor, full curve, poor fit]
CCOc1ccccc1CNCCNCC(C)O (configuration not stated)	inactive: -0.145%	–
CCOC(=O)N1CCC(NC(=O)CCN2C(=O)C3C4C=CC(C4)C3C2=O)CC1 (configuration not stated)	inactive: 7.61%	–
O=C(CCS(=O)(=O)c1ccc(Br)cc1)Nc1ccc(Cl)c(C(F)(F)F)c1	–	inconclusive [inhibitor, single point]
COc1ccccc1CCNC(=O)C(=O)NCC(c1cccs1)S(=O)(=O)c1ccccc1 (configuration not stated)	inactive: -7.26%	–
CC(=NC1CC1)C1=C(O)c2ccccc2C1=O	inactive: -0.585%	–
Cc1csc2ncnc(NNC(=O)c3ccc(Cl)cc3)c12	inactive: 2.03%	–
COc1cc(/C=C/C(=O)OCC(=O)c2c[nH]c3ccccc23)ccc1OC(F)F	–	inconclusive [inhibitor, partial curve, poor fit]
C=CCNc1cc(C)oc(=O)c1C(=O)CCC	inactive: -4.15%	–
CCOc1ccccc1CN1CCc2nc(N3CCN(c4ccccc4F)CC3)ncc2C1	inactive: 1.51%	–
C=CCNC1=C(Cl)C(=O)N(c2ccccc2Cl)C1=O	–	inconclusive [inhibitor, single point]
COc1cccc(C(=O)CC2(O)C(=O)Nc3ccc(Cl)cc32)c1 (configuration not stated)	inactive: -10.8%	–
NC(=S)N/N=C/c1ccc(-c2ccccc2)o1	inactive: 10.3%	–
CC1=CC2=NC(=O)/C(=C\c3cccn3CCOc3cc(C)ccc3C)C(=N)N2O1	–	inconclusive [inhibitor, partial curve, poor fit]
O=C(N/N=C/c1ccc2ncccc2c1)c1ccco1	–	inconclusive [inhibitor, partial curve]
Cc1[nH]c2ccccc2c1/C=N/Nc1nc(Nc2ccc(F)cc2)nc(N2CCOCC2)n1	–	inconclusive [activator, full curve]
Nc1ccc2nc3c(=O)n(CCc4ccccc4)c(=O)[nH]c3nc2c1	–	inconclusive [inhibitor, single point]
O=C1c2ccccc2-c2onc3ccc(NCCCn4ccnc4)c1c23	–	active: 20 µM
NC(=O)Cc1nc2scc(-c3ccccc3)c2c(=O)[nH]1	–	inconclusive [inhibitor, single point]
Cc1coc2c(O)cc3c(c12)OC1(N2CCCCC2)C(=O)NCCCC31 (configuration not stated)	–	inconclusive [inhibitor, partial curve]
O=C(Nc1cccc2ncccc12)c1ccc(F)cc1	inactive: -0.276%	–
COC(=O)[C@@]1(Cc2ccccc2)[C@@H]2C(=CC(=O)[C@H]2CC(=O)C(=O)N(C)C)CN1C(=O)c1ccccc1	–	inconclusive [inhibitor, single point]

SMILES	activity, negative = inhibition	Potency
Cc1cc(C)c2c(=O)n(CC(=O)N3CCC(N4CCCCC4)CC3)sc2n1	–	active: 25.1 µM
Cc1ccccc1NS(=O)(=O)c1ccc2[nH]cc(C(=O)NC(C)c3ccccc3)c(=O)c2c1 (configuration not stated)	–	active: 25.1 µM
CCc1ccccc1NC(=O)CSc1nnc([C@@H](N)Cc2ccccc2)o1	inactive: -7.56%	–
COc1ccccc1C(=O)Nc1nc2nc(-c3ccccc3)cc(=O)n2[nH]1	–	inconclusive [activator, partial curve, poor fit]
C(#CC1C=CC2OC(c3ccccc3)OCC2O1)c1ccccc1 (configuration not stated)	–	inconclusive [inhibitor, single point]
O=C(Nc1ccc(-c2noc(CCc3ccccc3)n2)cc1)c1cccnc1	–	inconclusive [inhibitor, partial curve]
CCc1ccc(CNC(=O)COc2cc(=O)n(CC)c3ccccc23)cc1	inactive: -1.22%	–
Cc1c(CCC(C)C)c(=O)n2c([nH]c3ccccc32)c1C#N	–	inconclusive [activator, partial curve, poor fit]
O=C(NCc1ccco1)c1ccc2c(c1)C(=O)N(C1CCCCC1)C2=O	inactive: -18.3%	–
O=C(CSc1nc2ccccc2o1)N/N=C/c1ccccc1	inactive: -8.75%	–
COc1cc(NC(=O)CC(c2ccc(C)cc2)N2Cc3ccccc3C2=O)cc(OC)c1 (configuration not stated)	–	inconclusive [inhibitor, partial curve]
Cc1ccnc(NC(=O)c2cc3ccccc3oc2=O)c1	inactive: 0.0678%	–
Cc1cc(C)cc(Nc2cc(C(=O)NCCCN(Cc3ccccc3)C(C)C)c3ccccc3n2)c1	–	inconclusive [inhibitor, single point]
CN(C)CCCN(C(=O)CCOc1ccccc1)c1nc2c(F)cccc2s1	–	inconclusive [inhibitor, single point]
NNc1nc2c(Cl)cccc2s1	–	inconclusive [inhibitor, single point]
CCC(C)Nc1nc(N)c([N+](=O)[O-])c(Nc2ccccc2OC)n1 (configuration not stated)	–	inconclusive [inhibitor, single point]
O=C(c1ccc(S(=O)(=O)N2CCOCC2)cc1)N1CCN(S(=O)(=O)c2ccc(Cl)s2)CC1	–	inconclusive [activator, single point]
CCOC(=O)c1sc(NC(=O)CSc2nc3c(cc2C#N)CCCCC3)c(C#N)c1C	–	inconclusive [activator, single point]
O=c1[nH]c2cc(Cl)c(Cl)cc2[nH]c1=O	–	inconclusive [inhibitor, single point]
Cc1nn(-c2ccccc2)c2ncc(C(=O)c3cc(Cl)ccc3O)cc12	–	inconclusive [inhibitor, full curve, poor fit]
CC(C)(C)N(Cc1ccccc1)C(=O)CCc1ccccc1	inactive: 2.59%	–
O=C(Nc1cccc(-c2nc3ccccc3o2)c1)c1cc([N+](=O)[O-])ccc1N1CCOCC1	–	inconclusive [inhibitor, single point]
COc1ccc(-c2cnc(N)n2CC2CCCO2)cc1 (configuration not stated)	inactive: 2.92%	–
